Measurements from PubChem BioAssay.
This list was built around the results that the source calls inconclusive (neither active nor inactive); the mix of calls is not that of the screen. Calls of active or inactive are those of the source.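 How the source made its calls: active means thallium flux slope above the same plate's solvent-control mean plus 3 SD in both duplicate wells; inconclusive means duplicate wells that disagreed; inactive means the rest.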

Assay: native HEK Tl+ uptake effects, second counter-screen – HEK cells, counterscreen 2, counter-screen for KCC2 modulator project, confirmation (AID 1718);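 further: run without ouabain in cells lacking the KCC2 cotransporter; slope of fluorescence scaled to its starting value between 10 and 20 s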
Details: HEK293 parental, thallium flux FluoZin-2 fluorescence slope; at 10 µM
Outline: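 System: Parental HEK cells | Also added: Thallium sulfate stimulus buffer | Compound dosing: Single 10 µM final compound dose, 0.1% DMSO | Schedule: Overnight cell culture at 37 °C, 48 min dye loading, compound before thallium | Signal: FluoZin-2 fluorescence kinetics | Repeats: Replicate wells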

| Compound | thallium flux slope |
| --- | --- |
| Cc1cc(C(C)(C)C)ccc1OCCN1CCCC1 | inconclusive: 0.0101 |
| Cc1cc(C(=O)NNC(=O)c2cccc(Cl)c2)no1 | active: 0.0176 |
| S=C(Nc1ccccc1)Nc1nc2ccccc2n1CCOc1ccc(Br)cc1 | inconclusive: 0.0107 |
| C=CCNC(=O)C1CCN(c2c([N+](=O)[O-])cc(C(F)(F)F)cc2[N+](=O)[O-])CC1 | inconclusive: 0.00999 |
| O=C(NC(=S)N1CCN(C/C=C/c2ccccc2)CC1)c1c(F)cccc1F | inconclusive: 0.0113 |
| C/C(=N\NC(=O)c1cccnc1)c1cc2ccccc2o1 | inconclusive: 0.0103 |
| COc1ccc(NC(=O)CSc2nnc(CNc3ccc(F)cc3)o2)c(OC)c1 | inactive: 0.0107 |
| O=C(NC(=S)NCc1ccc2c(c1)OCO2)c1ccccc1 | inconclusive: 0.00975 |
| COc1cc(-c2c(C#N)c(N)nc(SCc3ccncc3)c2C#N)cc(OC)c1OC | inconclusive: 0.0106 |
